# Some of the results follow. Single values are uncertain, as repeats are few or missing.
# Test system: MEL-HO
# Assay: cell count relative to DMSO control; melanoma cells; higher = more viable cells
# Details: library dose: low library concentration; 72 h
# 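Further: cell number obtained by counting DAPI-stained nuclei in high-throughput microscope images with image analysis software, screen run in 1,536-well plates.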
row,SMILES,cell count
1,"CC(=O)c1c(C)c2cnc(Nc3ccc(N4CCNCC4)cn3)nc2n(C2CCCC2)c1=O [palbociclib] + COC(=O)c1sccc1S(=O)(=O)Nc1ccc(Nc2ccccc2)cc1OC [GSK0660] (first compound 0.04 µM, partner dose 1 µM)",85%
2,"CO[C@H]1C[C@@H]2CC[C@@H](C)[C@@](O)(O2)C(=O)C(=O)N2CCCC[C@H]2C(=O)O[C@H]([C@H](C)C[C@@H]2CC[C@@H](OCCO)[C@H](OC)C2)CC(=O)[C@H](C)/C=C(\C)[C@@H](O)[C@@H](OC)C(=O)[C@H](C)C[C@H](C)/C=C/C=C/C=C/1C [everolimus] + Cn1cc(/C=C2\C(=O)Nc3cccnc32)c2ccccc21 [GW441756] (first compound 0.02 µM, partner dose 0.4 µM)",72.6%
3,"CO[C@H]1C[C@@H]2CC[C@@H](C)[C@@](O)(O2)C(=O)C(=O)N2CCCC[C@H]2C(=O)O[C@H]([C@H](C)C[C@@H]2CC[C@@H](OCCO)[C@H](OC)C2)CC(=O)[C@H](C)/C=C(\C)[C@@H](O)[C@@H](OC)C(=O)[C@H](C)C[C@H](C)/C=C/C=C/C=C/1C [everolimus] + CCN(CC)CCCCNc1ncc2cc(-c3cc(OC)cc(OC)c3)c(NC(=O)NC(C)(C)C)nc2n1 [PD173074] (first compound 0.02 µM, partner dose 0.1 µM)",77.9%
4,"Nc1ccn([C@@H]2O[C@H](CO)[C@@H](O)C2(F)F)c(=O)n1 [gemcitabine] + O=C1NC(=O)/C(=C/c2ccc(-c3ccc(F)cc3O)o2)S1 [AS252424] (first compound 0.0004 µM, partner dose 1 µM)",80.4%
5,"Nc1ccn([C@@H]2O[C@H](CO)[C@@H](O)C2(F)F)c(=O)n1 [gemcitabine] + Oc1nc(-c2ccc(C(F)(F)F)cc2)nc2c1CSCC2 [XAV939] (first compound 0.0004 µM, partner dose 2 µM)",79.5%
6,"Nc1ccn([C@@H]2O[C@H](CO)[C@@H](O)C2(F)F)c(=O)n1 [gemcitabine] + O=S(=O)(c1ccccc1)N(CC(F)(F)F)c1ccc(C(O)(C(F)(F)F)C(F)(F)F)cc1 [T0901317] (first compound 0.0004 µM, partner dose 1.4 µM)",88.1%
7,"Nc1nc(F)nc2c1ncn2[C@@H]1O[C@H](CO)[C@@H](O)[C@@H]1O [fludarabine] + CCc1ccc(CCOc2ccc(CC3SC(=O)NC3=O)cc2)nc1 [pioglitazone] (first compound 0.2 µM, partner dose 2 µM)",106%
8,"CC(=O)c1c(C)c2cnc(Nc3ccc(N4CCNCC4)cn3)nc2n(C2CCCC2)c1=O [palbociclib] + Cc1cc([N+](=O)[O-])ccc1NS(=O)(=O)c1cc(Cl)ccc1Cl [FH535] (first compound 0.04 µM, partner dose 1 µM)",74.6%
9,"CC(=O)O[C@@]12CO[C@@H]1C[C@H](O)[C@@]1(C)C(=O)[C@H](O)C3=C(C)[C@@H](OC(=O)[C@H](O)[C@@H](NC(=O)OC(C)(C)C)c4ccccc4)C[C@@](O)([C@@H](OC(=O)c4ccccc4)[C@H]21)C3(C)C [Docetaxel] + N#Cc1c(O)c2c(-c3ccc(-c4ccccc4O)cc3)csc2[nH]c1=O [A769662] (first compound 0.0001 µM, partner dose 2 µM)",71.6%
10,"Nc1ncn([C@H]2C[C@H](O)[C@@H](CO)O2)c(=O)n1 [decitabine] + COC(=O)c1sccc1S(=O)(=O)Nc1ccc(Nc2ccccc2)cc1OC [GSK0660] (first compound 0.1 µM, partner dose 1 µM)",92.7%
11,"CO[C@H]1C[C@@H]2CC[C@@H](C)[C@@](O)(O2)C(=O)C(=O)N2CCCC[C@H]2C(=O)O[C@H]([C@H](C)C[C@@H]2CC[C@@H](OCCO)[C@H](OC)C2)CC(=O)[C@H](C)/C=C(\C)[C@@H](O)[C@@H](OC)C(=O)[C@H](C)C[C@H](C)/C=C/C=C/C=C/1C [everolimus] + COc1ccc2c(c1)CCC1C2CCC2(C)C(NCCCCCCN3C(=O)C=CC3=O)CCC12 [U73122] (first compound 0.02 µM, partner dose 0.4 µM)",72.2%
12,"CC(=O)O[C@@]12CO[C@@H]1C[C@H](O)[C@@]1(C)C(=O)[C@H](O)C3=C(C)[C@@H](OC(=O)[C@H](O)[C@@H](NC(=O)OC(C)(C)C)c4ccccc4)C[C@@](O)([C@@H](OC(=O)c4ccccc4)[C@H]21)C3(C)C [Docetaxel] + O=S(=O)(c1ccccc1)N(CC(F)(F)F)c1ccc(C(O)(C(F)(F)F)C(F)(F)F)cc1 [T0901317] (first compound 0.0001 µM, partner dose 1.4 µM)",59.2%

# From the supplement of paper PMC4604168 (melanoma cell lines)
